The source of these data is PMC4336329 (PLoS ONE, 2015).

In all, about 310,000 compounds went through this assay and about 2,200 (0.71%) showed an effect of 50% or more. Effects have a minus sign here. Some of the results follow.

The target in the experiment is human ether-à-go-go-related gene (hERG) potassium channel (human, UniProt Q12809). Put plainly: primary screen, population patch clamp on CHO cells stably expressing hERG.
Sequence of human ether-à-go-go-related gene (hERG) potassium channel (Q12809 whole entry, looked up): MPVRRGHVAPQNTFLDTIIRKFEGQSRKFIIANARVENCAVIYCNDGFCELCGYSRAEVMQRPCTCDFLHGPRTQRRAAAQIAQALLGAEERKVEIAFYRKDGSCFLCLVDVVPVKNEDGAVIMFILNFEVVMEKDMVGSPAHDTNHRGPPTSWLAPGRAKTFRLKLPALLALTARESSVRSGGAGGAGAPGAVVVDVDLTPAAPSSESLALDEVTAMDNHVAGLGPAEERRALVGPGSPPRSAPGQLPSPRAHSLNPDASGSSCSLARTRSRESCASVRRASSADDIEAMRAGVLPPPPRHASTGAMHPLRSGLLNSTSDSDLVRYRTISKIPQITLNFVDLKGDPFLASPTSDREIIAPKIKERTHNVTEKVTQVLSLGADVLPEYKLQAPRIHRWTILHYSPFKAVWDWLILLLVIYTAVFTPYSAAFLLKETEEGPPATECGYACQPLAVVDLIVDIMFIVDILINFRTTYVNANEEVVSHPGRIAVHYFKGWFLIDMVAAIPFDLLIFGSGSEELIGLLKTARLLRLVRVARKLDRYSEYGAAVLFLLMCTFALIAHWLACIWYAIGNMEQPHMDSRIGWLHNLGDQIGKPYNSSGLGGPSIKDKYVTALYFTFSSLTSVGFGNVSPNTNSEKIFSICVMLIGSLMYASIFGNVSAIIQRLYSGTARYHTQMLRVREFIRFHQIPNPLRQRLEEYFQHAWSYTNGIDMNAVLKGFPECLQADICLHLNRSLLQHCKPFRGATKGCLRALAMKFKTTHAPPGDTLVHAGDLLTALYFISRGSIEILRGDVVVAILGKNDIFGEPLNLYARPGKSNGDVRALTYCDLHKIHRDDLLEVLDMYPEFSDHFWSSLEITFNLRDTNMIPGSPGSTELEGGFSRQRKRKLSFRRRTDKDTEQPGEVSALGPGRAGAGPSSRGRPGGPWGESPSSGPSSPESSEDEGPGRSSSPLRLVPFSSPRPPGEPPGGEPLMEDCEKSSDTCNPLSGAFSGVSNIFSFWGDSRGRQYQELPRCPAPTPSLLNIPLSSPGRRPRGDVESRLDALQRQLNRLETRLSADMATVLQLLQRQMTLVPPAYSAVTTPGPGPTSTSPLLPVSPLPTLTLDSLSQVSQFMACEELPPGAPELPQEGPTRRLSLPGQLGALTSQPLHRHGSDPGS
Regarding `O=C(c1cccs1)N1CCN(C(=O)C(c2ccccc2)c2ccccc2)CC1`, the “hERG current change (%, negative = inhibition) at 1uM” value is reported as -7.9%.
Then `COc1ccc(/C=N/Nc2nc(Nc3ccccc3)nc(N3CCCC3)n2)cc1`, with 9.1%.
For the molecule `COc1ccc(OC)c(-c2cc(C(=O)N3CCN(c4ccccc4)CC3)no2)c1`, the “hERG current change (%, negative = inhibition) at 1uM” value is listed as -3.18%.
Then `COCCOC(=O)C1=C(C)NC(=S)NC1/C=C/c1ccccc1` (stereo not drawn), with 8.19%; and `C=CCSc1nnc(-c2c[nH]c3ccccc23)n1CCOC`, with 10.5%; and `CCC(C)C(NC(=O)c1ccccc1NC(=O)c1ccc(C)cc1)C(=O)O` (stereo not drawn), with 14.2%.
Then `Cc1cc(NC(=O)CSCc2nc(-c3cccc(Cl)c3)oc2C)no1`, with 11.7%; and `O=C(COc1ccc(S(=O)(=O)NC2CCCCC2)cc1Cl)NCC1CCCO1` (stereo not drawn), with 7.84%; and `CC(=O)CSc1nnc(-c2ccc(S(=O)(=O)N3CCOCC3)cc2)n1C`, with 17.3%.
On to `O=[N+]([O-])c1c(NCCCO)cc(Sc2nc3ccccc3s2)c2nonc12`, for which the “hERG current change (%, negative = inhibition) at 1uM” value amounted to 2.55%.
Regarding `O=C(COc1ccc(Cl)cc1)NCc1nnc(SCC(=O)Nc2ccc3c(c2)OCCO3)o1`, the “hERG current change (%, negative = inhibition) at 1uM” value is 12.6%.
`Cc1cc(=O)oc(C)c1C(=O)NCCc1ccc(F)cc1`: the “hERG current change (%, negative = inhibition) at 1uM” value turned out to be 4.08%.
Then `N#CCSc1nnc(CNc2cccc(Cl)c2)o1`, with 8.19%; and `O=C(OCC(=O)N1CCN(S(=O)(=O)c2ccccc2)CC1)c1ccc([N+](=O)[O-])o1`, with 7.48%; and `Cc1cccc(-c2nsc(SCC(=O)NCc3ccc4c(c3)OCO4)n2)c1`, with 8.32%.
As to `CCOc1ccc(OCCCCn2cnc3ccccc3c2=O)cc1`, the “hERG current change (%, negative = inhibition) at 1uM” value is reported as 3.27%.
Consider `C=CCNCCOCCSc1ccc(Cl)cc1.O=C(O)C(=O)O`, for which the “hERG current change (%, negative = inhibition) at 1uM” value is given as -0.123%.
Turning to `CCCCOC(=O)c1ccc(NC(=O)C(=O)NCc2ccncc2)cc1`, the “hERG current change (%, negative = inhibition) at 1uM” value is listed as 7.46%.
The figure for `C=CCN1C(=O)c2ccc(C(=O)NCC(c3ccccc3)N(C)C)cc2C1=O` (stereo not drawn) is 7.08%; for `CCn1ncc(Cl)c1C(=O)Nc1cc([N+](=O)[O-])ccc1OC` it is 11.5%; for `CC(=O)c1ccc(NC(=O)C(C)OC(=O)c2cccc(-n3cnnn3)c2)cc1` (stereo not drawn) it is 5.99%.
Then `Cc1nn(Cc2ccccc2Cl)c(C)c1C(=O)OCC(=O)NC1CCCC(C)C1C` (stereo not drawn), with 6.97%; and `Cc1cccc(N2CCN(C(=O)/C=C/c3cccs3)CC2)c1C`, with 9.29%; and `COc1ccc(N2CCN(C(CNC(=O)OCc3ccccc3)c3ccco3)CC2)cc1` (stereo not drawn), with -2.14%.
With `Cc1ccc(S(=O)(=O)NC2c3cccc4cccc(c34)C2Sc2ncccn2)cc1` (stereo not drawn), the “hERG current change (%, negative = inhibition) at 1uM” value came out at 11.8%.
Then `O=C(O)c1ccc2c(c1)C(=O)N(c1cccc3ccccc13)C2=O`, with 10.8%; and `O=C(CSc1nnc(CNC(=O)c2c(F)cccc2Cl)o1)NCc1ccccc1`, with 13.6%; and `COc1cc(NC(=O)N[C@H](C(=O)O)C(C)C)cc(OC)c1`, with 1.71%.
Consider `Nc1ccc(S(=O)(=O)Nc2ccc(C(=O)c3ccccc3)cc2)cc1`, for which the “hERG current change (%, negative = inhibition) at 1uM” value is 14.6%.
Then `COc1ccc(C(=O)NC(=S)NNC(=O)Cc2cccs2)cc1`, with 6.79%.
Then `CCc1ccc(CNC(=O)CCCC(=O)n2nc(C)c3ccccc32)cc1`, with 16.1%; and `COc1ccc(N(C(=O)CNC(=O)c2ccco2)C(C(=O)NCC2CCCO2)c2ccc(OC)c(OC)c2)cc1` (stereo not drawn), with 14.1%.
Then `Cc1noc(C)c1S(=O)(=O)NC1CCN(Cc2ccccc2)CC1`, with 9%; and `C[C@@H](C(=O)NCCc1c[nH]c2ccccc12)[C@H]1C[C@]1(C)[C@H](NC(=O)OCc1ccccc1)c1ccccc1`, with 8.13%; and `CN(C)S(=O)(=O)c1ccc(Cl)c(NC(=O)CSc2nc3c(cc2C#N)C(=O)CC(C)(C)C3)c1`, with -45.7%.
Regarding `COc1ccccc1/C=C/C=N/n1c(-c2ccco2)n[nH]c1=S`, the “hERG current change (%, negative = inhibition) at 1uM” value came out at 12.6%.
Then `CCOc1ccc(CN2CCNC(=O)C2CC(=O)NC2CCCCCC2)cc1` (stereo not drawn), with 10.4%.
Consider `COc1ccc(CCn2c(-c3cc([N+](=O)[O-])cc([N+](=O)[O-])c3)nc3nc4ccccc4nc32)cc1`, for which the “hERG current change (%, negative = inhibition) at 1uM” value came to 4.54%.
As to `C[C@@H]1CC[C@@]2(O[C@H](CCO)C[C@@H](O)[C@@H]2O)O1`, the “hERG current change (%, negative = inhibition) at 1uM” value amounted to 18.6%.
The figure for `CCOC(=O)CCC(=O)c1c(C)oc2ccc(OC)cc12` is -18.4%; for `Cc1c(N2C(=O)c3ccc4c5c(ccc(c35)C2=O)CC4)c(=O)n(-c2ccccc2)n1C` it is 19.1%; for `Nc1ccccc1-c1nc2ccccc2[nH]1` it is 1.2%.
